Measurements reported in patent publication US11685745B2, “Substituted benzoxazole and benzofuran compounds as PDE7 inhibitors” (Dart NeuroScience, LLC, priority 2017, dated 2023).

Biological target: N-terminal truncated recombinant human PDE7B enzyme (Homo sapiens (Human), UniProt Q9NP56)
Experiment: biochemical

Compound | IC50 [µM]
O=C1Nc2c(Cl)cc3nc(CNC4(CO)CCCC4)oc3c2C2(CCCCC2)N1 [Example 96, 5-Chloro-2-({[1-(hydroxymethyl)cyclopentyl]amino}methyl)-7,8-dihydro-6H-spiro[[1,3]oxazolo[5,4-f]quinazoline-9,1′-cyclohexane]-7-one] | 0.1 to 1
CCN(CCC#N)Cc1cc2cc(Cl)c3c(c2o1)C1(CCCCC1)NC(=O)N3 [Example 479, 3-({5′-Chloro-7′-oxo-7′,8′-dihydro-6′H-spiro[cyclohexane-1,9′-furo[2,3-f]quinazoline]-2′-ylmethyl}(ethyl)amino)propanenitrile] | 0.1 to 1
CN(CCN(C)C(=O)c1cc2cc(Cl)c3c(c2o1)C1(CCCCC1)NC(=O)N3)Cc1ccccc1 [Example 28, N-(2-(Benzyl(methyl)amino)ethyl)-5′-chloro-N-methyl-7′-oxo-7′,8′-dihydro-6′H-spiro[cyclohexane-1,9′-furo[2,3-f]quinazoline]-2′-carboxamide] | 0.01 to 0.1
O=C1Nc2c(Cl)cc3cc(CN4CCOCC4)oc3c2C2(CCCCC2)N1 [Example 242, 5′-Chloro-2′-(morpholin-4-ylmethyl)-7′,8′-dihydro-6′H-spiro[cyclohexane-1,9′-furo[2,3-f]quinazoline]-7′-one] | 0.01 to 0.1
O=C1Nc2c(Cl)cc3cc(C(=O)NC4CCN(Cc5ccccc5)C4)oc3c2C2(CCCCC2)N1 (centres unmarked) [Example 301, N-(1-benzylpyrrolidin-3-yl)-5′-chloro-7′-oxo-7′,8′-dihydro-6′H-spiro[cyclohexane-1,9′-furo[2,3-f]quinazoline]-2′-carboxamide] | 0.01 to 0.1
O=C1Nc2c(Cl)cc3cc(C(=O)N4CCC5(CC(=O)c6ccccc6O5)C4)oc3c2C2(CCCCC2)N1 (centres unmarked) [Example 401, 5′-Chloro-2′-({4-oxo-3,4-dihydrospiro[1-benzopyran-2,3′-pyrrolidine]-1′-yl}carbonyl)-7′,8′-dihydro-6′H-spiro[cyclohexane-1,9′-furo[2,3-f]quinazoline]-7′-one] | 0.01 to 0.1
O=C1Nc2c(Cl)cc3nc(CN4CCC(OCC5CC5)CC4)oc3c2C2(CCCCC2)N1 [Example 70, 5-Chloro-2-{[4-(cyclopropylmethoxy)piperidin-1-yl]methyl}-7,8-dihydro-6H-spiro[[1,3]oxazolo[5,4-f]quinazoline-9,1′-cyclohexane]-7-one] | 0.1 to 1
O=C1Nc2c(Cl)cc3cc(CN4CCCC(CO)C4)oc3c2C2(CCCCC2)N1 (centres unmarked) [Example 565, 5′-Chloro-2′-{[3-(hydroxymethyl)piperidin-1-yl]methyl}-7′,8′-dihydro-6′H-spiro[cyclohexane-1,9′-furo[2,3-f]quinazoline]-7′-one] | 0.1 to 1
O=C1Nc2c(Cl)cc3cc(C(=O)N4CCN(C(=O)c5ccccc5)CC4)oc3c2C2(CCCCC2)N1 [Example 362, 2′-(4-Benzoylpiperazine-1-carbonyl)-5′-chloro-7′,8′-dihydro-6′H-spiro[cyclohexane-1,9′-furo[2,3-f]quinazoline]-7′-one] | 0.01 to 0.1
O=C1Nc2c(Cl)cc3nc(C(=O)NC4CCCOC4)oc3c2C2(CCCCC2)N1 (centres unmarked) [Example 201, 5-Chloro-N-(oxan-3-yl)-7-oxo-7,8-dihydro-6H-spiro[[1,3]oxazolo[5,4-f]quinazoline-9,1′-cyclohexane]-2-carboxamide] | 0.01 to 0.1
COc1cccc(CNC(=O)c2cc3cc(Cl)c4c(c3o2)C2(CCCCC2)NC(=O)N4)c1 [Example 410, 5′-Chloro-N-[(3-methoxyphenyl)methyl]-7′-oxo-7′,8′-dihydro-6′H-spiro[cyclohexane-1,9′-furo[2,3-f]quinazoline]-2′-carboxamide] | 0.01 to 0.1
CC(=O)N1CCN(Cc2nc3cc(Cl)c4c(c3o2)C2(CCCCC2)NC(=O)N4)CC1 [Example 47, 2-[(4-Acetylpiperazin-1-yl)methyl]-5-chloro-7,8-dihydro-6H-spiro[[1,3]oxazolo[5,4-f]quinazoline-9,1′-cyclohexane]-7-one] | 0.01 to 0.1
CCOC(=O)Cc1nc2cc(Cl)c3c(c2o1)C1(CCCCC1)NC(=O)N3 [Example 6, Ethyl 2-(5′-chloro-7′-oxo-7′,8′-dihydro-6′H-spiro[cyclohexane-1,9′-oxazolo[5,4-f]quinazolin]-2′-yl)acetate] | 0.01 to 0.1
CC(C)(O)[C@@H]1CCN(Cc2nc3cc(Cl)c4c(c3o2)C2(CCCCC2)NC(=O)N4)C1 [Example 120, 5-Chloro-2-{[(3R)-3-(2-hydroxypropan-2-yl)pyrrolidin-1-yl]methyl}-7,8-dihydro-6H-spiro[[1,3]oxazolo[5,4-f]quinazoline-9,1′-cyclohexane]-7-one] | 0.1 to 1
O=C1Nc2c(Cl)cc3cc(C(=O)NC4(c5ccccn5)CC4)oc3c2C2(CCCCC2)N1 [Example 359, 5′-Chloro-7′-oxo-N-[1-(pyridin-2-yl)cyclopropyl]-7′,8′-dihydro-6′H-spiro[cyclohexane-1,9′-furo[2,3-f]quinazoline]-2′-carboxamide] | 0.01 to 0.1
O=C1Nc2c(Cl)cc3nc(C(=O)NCC(F)(F)CO)oc3c2C2(CCCCC2)N1 [Example 217, 5-Chloro-N-(2,2-difluoro-3-hydroxypropyl)-7-oxo-7,8-dihydro-6H-spiro[[1,3]oxazolo[5,4-f]quinazoline-9,1′-cyclohexane]-2-carboxamide] | 0.01 to 0.1

Compound | IC50 [µM]
CCN(CCO)C(=O)c1cc2cc(Cl)c3c(c2o1)C1(CCCCC1)NC(=O)N3 [Example 273, 5′-Chloro-N-ethyl-N-(2-hydroxyethyl)-7′-oxo-7′,8′-dihydro-6′H-spiro[cyclohexane-1,9′-furo[2,3-f]quinazoline]-2′-carboxamide] | 0.01 to 0.1
O=C1Nc2c(Cl)cc3cc(C(=O)N(CCCO)Cc4ccccc4)oc3c2C2(CCCCC2)N1 [Example 461, N-Benzyl-5′-chloro-N-(3-hydroxypropyl)-7′-oxo-7′,8′-dihydro-6′H-spiro[cyclohexane-1,9′-furo[2,3-f]quinazoline]-2′-carboxamide] | 0.01 to 0.1
O=C1Nc2c(Cl)cc3nc(CNC4CCOCC4F)oc3c2C2(CCCCC2)N1 (centres unmarked) [Example 163, 5-Chloro-2-{[(3-fluorooxan-4-yl)amino]methyl}-7,8-dihydro-6H-spiro[[1,3]oxazolo[5,4-f]quinazoline-9,1′-cyclohexane]-7-one] | 0.01 to 0.1
O=C1Nc2c(Cl)cc3cc(C(=O)NCCOc4cccnc4)oc3c2C2(CCCCC2)N1 [Example 316, 5′-Chloro-7′-oxo-N-[2-(pyridin-3-yloxy)ethyl]-7′,8′-dihydro-6′H-spiro[cyclohexane-1,9′-furo[2,3-f]quinazoline]-2′-carboxamide] | 0.01 to 0.1
CCNCc1nc2cc(Cl)c3c(c2o1)C1(CCCCC1)NC(=O)N3 [Example 40, 5-Chloro-2-[(ethylamino)methyl]-7,8-dihydro-6H-spiro[[1,3]oxazolo[5,4-f]quinazoline-9,1′-cyclohexane]-7-one] | 0.01 to 0.1
C#CCNC(=O)c1cc2cc(Cl)c3c(c2o1)C1(CCCCC1)NC(=O)N3 [Example 385, 5′-Chloro-7′-oxo-N-(prop-2-yn-1-yl)-7′,8′-dihydro-6′H-spiro[cyclohexane-1,9′-furo[2,3-f]quinazoline]-2′-carboxamide] | 0.01 to 0.1
O=C1Nc2c(Cl)cc3nc(CN4CCC5(CC4)COC5)oc3c2C2(CCCCC2)N1 [Example 85, 5-Chloro-2-{2-oxa-7-azaspiro[3.5]nonan-7-ylmethyl}-7,8-dihydro-6H-spiro[[1,3]oxazolo[5,4-f]quinazoline-9,1′-cyclohexane]-7-one] | 0.01 to 0.1
CC1(NCc2nc3cc(Cl)c4c(c3o2)C2(CCCCC2)NC(=O)N4)CCOC1 (centres unmarked) [Example 154, 5-Chloro-2-{[(3-methyloxolan-3-yl)amino]methyl}-7,8-dihydro-6H-spiro[[1,3]oxazolo[5,4-f]quinazoline-9,1′-cyclohexane]-7-one] | 0.01 to 0.1
Cn1ccc(CNCc2nc3cc(Cl)c4c(c3o2)C2(CCCCC2)NC(=O)N4)n1 [Example 174, 5-Chloro-2-({[(1-methyl-1H-pyrazol-3-yl)methyl]amino}methyl)-7,8-dihydro-6H-spiro[[1,3]oxazolo[5,4-f]quinazoline-9,1′-cyclohexane]-7-one] | 0.01 to 0.1
CC(=O)C1CCN(Cc2nc3cc(Cl)c4c(c3o2)C2(CCCCC2)NC(=O)N4)CC1 [Example 65, 2-[(4-Acetylpiperidin-1-yl)methyl]-5-chloro-7,8-dihydro-6H-spiro[[1,3]oxazolo[5,4-f]quinazoline-9,1′-cyclohexane]-7-one] | 0.01 to 0.1
O=C1Nc2c(Cl)cc3cc(CN4CCCC5(COC5)C4)oc3c2C2(CCCCC2)N1 [Example 505, 5′-Chloro-2′-{2-oxa-6-azaspiro[3.5]nonan-6-ylmethyl}-7′,8′-dihydro-6′H-spiro[cyclohexane-1,9′-furo[2,3-f]quinazoline]-7′-one] | 0.1 to 1
CCn1cnnc1CN(C)Cc1cc2cc(Cl)c3c(c2o1)C1(CCCCC1)NC(=O)N3 [Example 504, 5′-Chloro-2′-({[(4-ethyl-4H-1,2,4-triazol-3-yl)methyl](methyl)amino}methyl)-7′,8′-dihydro-6′H-spiro[cyclohexane-1,9′-furo[2,3-f]quinazoline]-7′-one] | 0.01 to 0.1
O=C1Nc2c(Cl)cc3cc(CN4CCN5CCCC5C4)oc3c2C2(CCCCC2)N1 (centres unmarked) [Example 528, 5′-Chloro-2′-{octahydropyrrolo[1,2-a]piperazin-2-ylmethyl}-7′,8′-dihydro-6′H-spiro[cyclohexane-1,9′-furo[2,3-f]quinazoline]-7′-one] | 0.1 to 1
O=C1Nc2c(Cl)cc3cc(CNCc4ccc(N5CCOCC5)nc4)oc3c2C2(CCCCC2)N1 [Example 549, 5′-Chloro-2′-[({[6-(morpholin-4-yl)pyridin-3-yl]methyl}amino)methyl]-7′,8′-dihydro-6′H-spiro[cyclohexane-1,9′-furo[2,3-f]quinazoline]-7′-one] | 0.1 to 1
COc1ccc(CNCc2nc3cc(Cl)c4c(c3o2)C2(CCCCC2)NC(=O)N4)c(OC)c1 [Example 92, 5-Chloro-2-({[(2,4-dimethoxyphenyl)methyl]amino}methyl)-7,8-dihydro-6H-spiro[[1,3]oxazolo[5,4-f]quinazoline-9,1′-cyclohexane]-7-one] | 0.01 to 0.1
O=C1Nc2c(Cl)cc3nc(CN4CCC(F)(F)CC4)oc3c2C2(CCCCC2)N1 [Example 42, 5-Chloro-2-[(4,4-difluoropiperidin-1-yl)methyl]-7,8-dihydro-6H-spiro[[1,3]oxazolo[5,4-f]quinazoline-9,1′-cyclohexane]-7-one] | 0.01 to 0.1
